Experimental data reported in the antibiotic and cytotoxicity screens of Wong et al. (2023).
The other results are listed elsewhere or left out.

How the values were obtained:
[1] = system: HSkMC (human skeletal muscle cells); experiment: cytotoxicity call (relative viability < 0.9); details: 10 µM
[2] = system: HepG2; experiment: cytotoxicity call (relative viability < 0.9); details: 10 µM
[3] = system: S. aureus RN4220; experiment: growth inhibition call (relative growth <= 0.2); details: 50 µM

Q: For `O=C(O)C[C@@H]1CC[C@H]2NC[C@@H](O)COC[C@@H]2O1`, which cytotoxicity call [1] is on record?
A: inactive

Q: What about the cytotoxicity call [2] of the same compound?
A: inactive

Q: What about the growth inhibition call [3] of the same compound?
A: inactive

Q: For `NCCNC[C@@H](N)CCCNC(N)=N[N+](=O)[O-].O=CC(F)(F)F`, which cytotoxicity call [1] is on record?
A: inactive

Q: What about the cytotoxicity call [2] of the same compound?
A: inactive

Q: What about the growth inhibition call [3] of the same compound?
A: inactive

Q: What does the source list for `O=C(c1ccno1)N1C[C@@H]2CCN[C@@H]2C1`?
A: cytotoxicity call [1]: inactive; cytotoxicity call [2]: inactive; growth inhibition call [3]: inactive

Q: What does the source list for `C[C@@H]1CC[C@@]2(OC1)O[C@H]1[C@@H](O)[C@H]3[C@H]4CC[C@H]5C[C@H](O[C@@H]6O[C@H](CO)[C@H](O[C@@H]7O[C@H](CO)[C@@H](O)[C@H](O[C@@H]8OC[C@@H](O)[C@H](O)[C@H]8O)[C@H]7O[C@@H]7O[C@H](CO)[C@H](O)[C@H](O[C@@H]8O[C@H](CO)[C@@H](O)[C@H](O)[C@H]8O)[C@H]7O)[C@H](O)[C@H]6O)[C@H](O)C[C@]5(C)[C@@H]4CC[C@]3(C)[C@H]1[C@@H]2C`?
A: cytotoxicity call [1]: inactive; cytotoxicity call [2]: inactive; growth inhibition call [3]: inactive

Q: `COc1cc2c3cc1Oc1c(OC)c(OC)cc4c1C(Cc1cccc(c1)Oc1ccc(c(O)c1)CC3N(C)CC2)N(C)CC4.Cl.Cl` (stereo not given) was tested. Which cytotoxicity call [1] did it give?
A: inactive

Q: What about the cytotoxicity call [2] of the same compound?
A: active

Q: What about the growth inhibition call [3] of the same compound?
A: inactive

Q: Which results are given for `N=C(N)/N=C(\N)Nc1ccc(Cl)cc1`?
A: cytotoxicity call [1]: inactive; cytotoxicity call [2]: inactive; growth inhibition call [3]: inactive

Q: For `N[C@@H](Cc1ccccc1)c1ccc2c(c1)OCCO2`, which cytotoxicity call [1] is on record?
A: inactive

Q: And the cytotoxicity call [2]?
A: inactive

Q: What about the growth inhibition call [3] of the same compound?
A: inactive

Q: Which results are given for `C[C@@H]1CN([C@H](C)CO)C(=O)CCCn2cc(nn2)CO[C@H]1CN(C)C(=O)Oc1ccc2ccccc2c1`?
A: cytotoxicity call [1]: inactive; cytotoxicity call [2]: inactive; growth inhibition call [3]: inactive

Q: What does the source list for `N.N.[Cl][Pt][Cl]`?
A: cytotoxicity call [1]: inactive; cytotoxicity call [2]: inactive; growth inhibition call [3]: inactive

Q: `CC(C)c1ccc2c(c1O)CCC1C3=C(CCC21C)C(=O)OC3` (stereo not given) was tested. Which cytotoxicity call [1] did it give?
A: inactive

Q: And the cytotoxicity call [2]?
A: inactive

Q: And the growth inhibition call [3]?
A: inactive

Q: What does the source list for `COCC(=O)N1[C@@H]2c3ccc(C4=CCCC4)c(=O)n3C[C@H]1[C@H](CO)[C@H]2C(=O)OC`?
A: cytotoxicity call [1]: inactive; cytotoxicity call [2]: inactive; growth inhibition call [3]: inactive

Q: Which results are given for `CN1CCN(C(=O)[C@H]2C[C@H]3CN(c4ncccn4)C[C@@H]3N2C)CC1`?
A: cytotoxicity call [1]: inactive; cytotoxicity call [2]: inactive; growth inhibition call [3]: inactive

Q: Which cytotoxicity call [1] does the source give for `CO[C@H]1[C@H]2CC[C@@H]1NC2` here?
A: inactive

Q: What about the cytotoxicity call [2] of the same compound?
A: inactive

Q: What about the growth inhibition call [3] of the same compound?
A: inactive

Q: `CCC(C)(C)O` was tested. Which cytotoxicity call [1] did it give?
A: inactive

Q: What about the cytotoxicity call [2] of the same compound?
A: inactive

Q: And the growth inhibition call [3]?
A: inactive

Q: For `CN1C[C@H](C(=O)N[C@]2(C)O[C@@]3(O)[C@@H]4CCCN4C(=O)[C@H](Cc4ccccc4)N3C2=O)C[C@@H]2c3cccc4[nH]cc(c34)C[C@H]21`, which cytotoxicity call [1] is on record?
A: inactive

Q: And the cytotoxicity call [2]?
A: inactive

Q: What about the growth inhibition call [3] of the same compound?
A: inactive

Q: With `C[C@@]12NC(=O)CN1CCc1ccccc12` as the compound, how does the cytotoxicity call [1] read?
A: inactive

Q: And the cytotoxicity call [2]?
A: inactive

Q: And the growth inhibition call [3]?
A: inactive

Q: For `NCCc1cccc(O)c1`, which cytotoxicity call [1] is on record?
A: inactive

Q: And the cytotoxicity call [2]?
A: inactive

Q: And the growth inhibition call [3]?
A: inactive

Q: With `CC1OC(OC2CC(O)C3(CO)C4C(O)CC5(C)C(C6=CC(=O)OC6)CCC5(O)C4CCC3(O)C2)C(O)C(O)C1O.O.O.O.O.O.O.O.O` (stereo not given) as the compound, how does the cytotoxicity call [1] read?
A: active

Q: And the cytotoxicity call [2]?
A: active

Q: What about the growth inhibition call [3] of the same compound?
A: inactive

Q: How did the cytotoxicity call [1] turn out when `COC(=O)C[C@H]1CC[C@H]2NC[C@@H](O)COC[C@@H]2O1` was run?
A: inactive

Q: And the cytotoxicity call [2]?
A: inactive

Q: And the growth inhibition call [3]?
A: inactive

Q: Which cytotoxicity call [1] does the source give for `COC1=CC2C3Cc4ccc(OC)c(O)c4C2(CCN3C)CC1=O` (stereo not given) here?
A: inactive

Q: What about the cytotoxicity call [2] of the same compound?
A: inactive

Q: What about the growth inhibition call [3] of the same compound?
A: inactive

Q: With `O=c1[nH]c2cc(N3CCNCC3)ccc2o1` as the compound, how does the cytotoxicity call [1] read?
A: inactive

Q: And the cytotoxicity call [2]?
A: active

Q: What about the growth inhibition call [3] of the same compound?
A: inactive

Q: `CN(C)C(=O)Oc1cc(OC(=O)N(C)C)cc(C(O)CNC(C)(C)C)c1.Cl` (stereo not given) was tested. Which cytotoxicity call [1] did it give?
A: inactive

Q: And the cytotoxicity call [2]?
A: inactive

Q: What about the growth inhibition call [3] of the same compound?
A: inactive

Q: Which results are given for `COc1cccc(N=[N+]=[N-])c1`?
A: cytotoxicity call [1]: inactive; cytotoxicity call [2]: inactive; growth inhibition call [3]: inactive

Q: With `COCC(=O)N1C[C@@H]2c3ccccc3CN[C@@H]2C1` as the compound, how does the cytotoxicity call [1] read?
A: inactive

Q: What about the cytotoxicity call [2] of the same compound?
A: inactive

Q: And the growth inhibition call [3]?
A: inactive

Q: How did the cytotoxicity call [1] turn out when `CCOCC(=O)N[C@H]1CCSC1=O` was run?
A: inactive

Q: What about the cytotoxicity call [2] of the same compound?
A: inactive

Q: And the growth inhibition call [3]?
A: inactive

Q: With `CCC(=O)OC1CCC2C3CCC4=CC(=O)CCC4(C)C3CCC12C` (stereo not given) as the compound, how does the cytotoxicity call [1] read?
A: inactive

Q: What about the cytotoxicity call [2] of the same compound?
A: inactive

Q: What about the growth inhibition call [3] of the same compound?
A: inactive

Q: `Cc1noc(C)c1CN1CCNCC1` was tested. Which cytotoxicity call [1] did it give?
A: inactive

Q: What about the cytotoxicity call [2] of the same compound?
A: inactive

Q: What about the growth inhibition call [3] of the same compound?
A: inactive

Q: What does the source list for `CN(C)[C@@H]1C(=O)[C@H](C(N)=O)C(=O)[C@@]2(O)C(=O)[C@@H]3C(=O)c4c(O)cccc4[C@@](C)(O)[C@H]3C[C@@H]12`?
A: cytotoxicity call [1]: inactive; cytotoxicity call [2]: inactive; growth inhibition call [3]: active

Q: Which results are given for `CC(=O)NCCSS(C)(=O)=O.CN(C)c1ccc2c(-c3ccccc3C(=O)O)c3ccc(N(C)C)cc3[o+]c2c1`?
A: cytotoxicity call [1]: inactive; cytotoxicity call [2]: inactive; growth inhibition call [3]: inactive

Q: What does the source list for `C#CC(C)(O)CC` (stereo not given)?
A: cytotoxicity call [1]: inactive; cytotoxicity call [2]: inactive; growth inhibition call [3]: inactive

Q: Which cytotoxicity call [1] does the source give for `CCC1CN2CCc3cc(OC)c(OC)cc3C2CC1CC1NCCc2cc(OC)c(OC)cc21.Cl.Cl` (stereo not given) here?
A: inactive

Q: What about the cytotoxicity call [2] of the same compound?
A: active

Q: And the growth inhibition call [3]?
A: inactive

Q: With `COc1ccc(OC)c(CN)c1` as the compound, how does the cytotoxicity call [1] read?
A: inactive

Q: What about the cytotoxicity call [2] of the same compound?
A: inactive

Q: And the growth inhibition call [3]?
A: inactive

Q: Which results are given for `CN(C)C(=O)N[C@H]1CN[C@H]2CCCO[C@H]21`?
A: cytotoxicity call [1]: inactive; cytotoxicity call [2]: inactive; growth inhibition call [3]: inactive

Q: What does the source list for `CCN1C[C@]2(C)CC[C@H](O)[C@@]34[C@@H]5C[C@H]6[C@H](O)[C@@H]5[C@](O)(C[C@@H]6OC)[C@](O)([C@@H](OC)[C@H]23)[C@@H]14`?
A: cytotoxicity call [1]: inactive; cytotoxicity call [2]: inactive; growth inhibition call [3]: inactive

Q: What does the source list for `CN1C[C@@H]2C[C@H](C(=O)Nc3cccnc3)[C@@H](C1)O2`?
A: cytotoxicity call [1]: inactive; cytotoxicity call [2]: inactive; growth inhibition call [3]: inactive

Q: Which results are given for `COc1cc2ccc(=O)oc2c2ccoc12`?
A: cytotoxicity call [1]: inactive; cytotoxicity call [2]: inactive; growth inhibition call [3]: inactive

Q: `CS(=O)(=O)N1CCO[C@]2(COCCN(Cc3ccncc3)C2)C1` was tested. Which cytotoxicity call [1] did it give?
A: inactive

Q: What about the cytotoxicity call [2] of the same compound?
A: inactive

Q: What about the growth inhibition call [3] of the same compound?
A: inactive

Q: With `O=C1CO[C@H]2CNC[C@@H]2N1CC1CCCC1` as the compound, how does the cytotoxicity call [1] read?
A: inactive

Q: What about the cytotoxicity call [2] of the same compound?
A: inactive

Q: What about the growth inhibition call [3] of the same compound?
A: inactive

Q: Which cytotoxicity call [1] does the source give for `Br.COc1ccc2c(c1)C13CCCCC1C(C2)N(C)CC3` (stereo not given) here?
A: inactive

Q: What about the cytotoxicity call [2] of the same compound?
A: inactive

Q: And the growth inhibition call [3]?
A: inactive

Q: With `CC(=O)OCC1=C2C(=O)[O][Zn][O]C(=O)[C@@H](N)CCCC(=O)N[C@@H]3C(=O)N2[C@@H]3SC1` as the compound, how does the cytotoxicity call [1] read?
A: inactive

Q: What about the cytotoxicity call [2] of the same compound?
A: inactive

Q: And the growth inhibition call [3]?
A: inactive
